Assay results from PubChem BioAssay AID485294 (National Center for Advancing Translational Sciences (NCATS), 2010).
In all, about 370,000 compounds went through this assay and about 150 (0.041%) were called active. The shares of active, inactive and inconclusive entries below differ from those in the screen. The call rests on the fitted dose curve; in most records, active means well fitted inhibition curve with a large enough effect; inconclusive means small, poorly fitted or top-dose-only effect; inactive means flat fitted curve, though single readings scatter. No potency is given beside an inconclusive call; the fits are too rough.

Molecular target: Beta-lactamase (Escherichia coli (strain K12)) (UniProt P00811)
Assay: qHTS Inhibitors of AmpC Beta-Lactamase (assay with detergent); further: nearly all actives have a fitted effect of over 25% in size;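 on activity change, negative = inhibition: 0% = no-compound wells and -100% = no-enzyme wells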
Settings: AmpC hydrolysis of nitrocefin, absorbance 480 nm, 0.01% Triton; activity change, negative = inhibition: at 114 µM (top of the series)
Method in brief: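 AmpC (5.3 nM in the dispensed reagent) in 20 mM phosphate pH 7.0 with 0.01% (detergent screen) or 0.0001% Triton X-100 was preincubated with compounds for 15 min at room temperature. Nitrocefin was then added from an 800 uM solution, and hydrolysis was followed at 480 nm.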
Potency means the concentration at half of the fitted maximal effect; tags describe the fitted curve by direction and shape.

Sequence of UniProt P00811 (P00811 whole entry, looked up): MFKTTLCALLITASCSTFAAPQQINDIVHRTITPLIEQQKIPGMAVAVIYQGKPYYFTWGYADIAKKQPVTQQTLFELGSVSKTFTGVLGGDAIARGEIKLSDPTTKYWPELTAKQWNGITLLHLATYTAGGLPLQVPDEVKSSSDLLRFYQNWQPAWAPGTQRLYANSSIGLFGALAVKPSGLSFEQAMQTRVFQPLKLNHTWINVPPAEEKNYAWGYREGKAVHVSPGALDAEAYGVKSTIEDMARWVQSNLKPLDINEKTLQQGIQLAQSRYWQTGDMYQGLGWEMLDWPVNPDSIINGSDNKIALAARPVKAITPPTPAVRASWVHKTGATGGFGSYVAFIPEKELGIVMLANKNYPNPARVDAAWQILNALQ

SMILES	Potency	activity change, negative = inhibition
COc1ccc(C2NC(=O)NC(C)=C2C(=O)OC2CCCC(C)C2)cc1 (stereo not given)	inconclusive [inhibitor, partial curve, poor fit]	–
CCCCCCc1cc2cc(C(=O)NCc3ccccc3)c(=N)oc2cc1O	inconclusive [inhibitor, full curve, poor fit]	–
COc1ccc(CN2C(=O)c3ccccc3C2=O)cc1C(=O)Nc1ccccc1N1CCOCC1	inconclusive [inhibitor, partial curve, poor fit]	–
O=C(Cc1cc(=O)[nH]c(=O)[nH]1)NCc1ccc(Cl)cc1	inconclusive [inhibitor, partial curve, poor fit]	–
C/C(CC(=O)Nc1ccc(Cl)cc1Cl)=N\NC(N)=S	–	inactive: -0.687%
O=C(OCc1cnc(Cl)s1)c1ccccc1Cl	–	inactive: -2.41%
COc1cc(C(=O)OCc2cc(=O)n3nc(C4CCCCC4)sc3n2)cc(OC)c1OC	–	inactive: -9.3%
N#C/C(=C\c1c(N2CCCCCC2)nc2ccccn2c1=O)C(=O)NCc1ccco1	–	inactive: 0.236%
O=C(O)c1ccc(N2CCCS2(=O)=O)cc1	inconclusive [inhibitor, single point]	–
COC(=O)c1cc(-c2ccc(Br)cc2)n[nH]1	–	inactive: -0.58%
CCOc1ccc(/C=C/C(=O)Nc2sc3c(c2C(=O)OC)C(C(=O)OC)CC3)cc1 (stereo not given)	–	inactive: -7.09%
O=c1[nH]c2ccccc2n1C1CCN(CCCC(c2ccc(F)cc2)c2ccc(F)cc2)CC1	inconclusive [inhibitor, single point]	–
Cc1nc(-c2ccc(S(=O)(=O)Nc3ccc(C#N)cc3)cc2)co1	–	inactive: -4.19%
O=C(N/N=C/c1ccc[nH]1)c1cccc(Br)c1	–	inactive: -6.83%
Cc1cccc(-n2c(-c3cccc([N+](=O)[O-])c3)nc3nc4ccccc4nc32)c1	inconclusive [inhibitor, single point]	–
CCn1c(SCC(N)=O)nnc1-c1cc2c(C)nn(-c3ccccc3)c2s1	inconclusive [inhibitor, partial curve]	–
CCCCCN(C(=O)CCC(=O)OCc1ccccc1F)c1c(N)n(CCCC)c(=O)[nH]c1=O	–	inactive: 0%
COc1ccc(C(=O)CCN2CCN(c3ccccc3OC)CC2)cc1	inconclusive [inhibitor, single point]	–
CCOc1ccccc1NC(=O)c1ccc2c(Cl)c3c(nc2c1)CCC3	–	inactive: 16.9%
CC(C)CN(C(=O)COC(=O)CCC(=O)c1ccc(F)cc1)c1c(N)n(Cc2ccccc2)c(=O)[nH]c1=O	inconclusive [inhibitor, partial curve, poor fit]	–
CCCOc1cccc(C(=O)N(Cc2ccccc2)C2CCS(=O)(=O)C2)c1 (stereo not given)	–	inactive: -16%
CCn1c(SCc2cc(=O)[nH]c3ccccc23)nnc1C1CC1	inconclusive [inhibitor, full curve, poor fit]	–
COC(=O)[C@]1(CC(C)C)N[C@H](c2ccc(-c3ccc4c(c3)OCO4)cc2)[C@@H]2C(=O)N(C)C(=O)[C@@H]21	inconclusive [inhibitor, single point]	–

SMILES	Potency	activity change, negative = inhibition
C=CCn1c(SCC(=O)NCC(=O)OCC)nnc1-c1cccc(OC)c1	inconclusive [inhibitor, full curve]	–
Cc1noc(C)c1CSc1nc2sc3c(c2c(=O)n1C)CCCC3	inconclusive [inhibitor, partial curve]	–
Cc1cc(SCNC(=O)c2ccccc2)ncn1	–	inactive: 6.36%
CCC1CCCCN1C(=O)CCCc1ccccc1 (stereo not given)	–	inactive: 0.524%
CSc1nc2cc(Cl)ccc2s1	–	inactive: -14.7%
C#CCOC(=O)c1ccccc1C(=O)n1nnc2ccccc21	inconclusive [inhibitor, single point]	–
CCOc1ccc(CN2CCN(C(=O)c3cccc4ccccc34)CC2)cc1	inconclusive [inhibitor, full curve, poor fit]	–
CCc1ccc(NC(=O)Cn2c(=O)n(CCCCC(=O)NCc3ccc4c(c3)OCO4)c(=O)c3ccccc32)cc1	–	inactive: 14.4%
COc1cc(/C=C2\CC/C(=C\c3cc(OC)c(O)c(OC)c3)C2=O)cc(OC)c1O	inconclusive [inhibitor, full curve, poor fit]	–
CC(C)C(NC(=O)/C=C/c1cccc([N+](=O)[O-])c1)C(C)C	inconclusive [inhibitor, single point]	–
O=C(CSc1nnc(-c2cc3ccccc3cc2O)n1Cc1ccco1)N1CCc2ccccc2C1	inconclusive [inhibitor, single point]	–
COc1ccc(OC)c(NC(=S)NCCSc2ccc(C)cc2)c1	inconclusive [inhibitor, partial curve]	–
Cc1nnc(SCC(=O)Nc2ccc(Cl)cn2)s1	inconclusive [inhibitor, full curve, poor fit]	–
CCC(c1nnnn1C(C)(C)CC)N(CCCO)Cc1cc2cc(C)cc(C)c2[nH]c1=O (stereo not given)	–	inactive: -10.8%
O=C(/C=C/c1ccc(O)c(O)c1)O[C@@H]1C[C@](O)(C(=O)O)C[C@@H](O)[C@H]1O	inconclusive [inhibitor, full curve, poor fit]	–
COc1cc(OC)cc(C(=O)Nc2ncc3c(n2)CC(C)(C)CC3=O)c1	inconclusive [inhibitor, partial curve, poor fit]	–
Cc1cc2oc(=O)cc(CN3CCC(C)CC3)c2c(C)c1Cl	inconclusive [inhibitor, partial curve]	–
Cc1ccc(S(=O)(=O)NCC(c2ccco2)S(=O)(=O)c2ccccc2)cc1 (stereo not given)	inconclusive [inhibitor, single point]	–
Cc1ccc(CCP(=O)(O)CN2CCOCC2)cn1	–	inactive: 2.46%
O=c1oc2ccccc2cc1-c1cn(-c2ccccc2)c(=S)[nH]1	inconclusive [inhibitor, partial curve, poor fit]	–
COc1cccc(NC(=O)Cc2ccc3ccccc3c2)c1	inconclusive [inhibitor, full curve]	–
Cc1cc2cc(CN(Cc3ccco3)C(=O)NCc3ccccc3)c(=O)[nH]c2cc1C	inconclusive [inhibitor, full curve, poor fit]	–
